Consider 54 compounds from PubChem BioAssay AID1347073 (National Center for Advancing Translational Sciences (NCATS), 2019).

The whole screen tested about 45,000 compounds, of which about 200 (0.44%) were called active. About 7% were inconclusive and are not listed. Calls follow the shape of the dose curve; as a rule, active = well fitted activation curve with a large enough effect; inconclusive = small, poorly fitted or top-dose-only effect; inactive = no such curve, though single readings can be large or run the other way. Some of the results follow.

This experiment is described as follows: qHTS of TDP-43 Inhibitors: NCGC Sytravon Library Screen. Also: 0% is about no effect; nearly all actives have a fitted effect of over 55% in size. As to conditions: yeast TDP-43 toxicity rescue, BacTiter-Glo growth, 24 h; series mostly up to 46.1 µM; growth rescue (activation): at the top concentration. The method, boiled down:
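TDP-43-expressing yeast, pregrown in raffinose, seeded at OD600 0.02 in galactose medium with compound for 24 hr at 30 deg C. Growth read by BacTiter-Glo luminescence, so rescue of toxicity appears as activation.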
For orientation: In qHTS, concentration-response curves come from the screen itself.
In the case of `O=C(CSc1n[nH]c(-c2ccccc2)n1)Nc1ccccc1O`, the “growth rescue (activation)” value is inactive: 15.3%. Still for that read-out and setting: with `NC(=O)c1cc(-c2csc(NCCc3ccccc3)n2)ccc1O` the figure was inactive: -49.9%. For the compound `O=C(NC(c1ccc(-c2ccccc2)cc1)c1cnccn1)C1CCN(Cc2ccc(Oc3ccccc3)cc2)CC1` (centres undefined), the “growth rescue (activation)” value was inactive: -39.1%.

Regarding `O=C(O)c1ccc(NS(=O)(=O)c2ccc3c(c2)C(=O)c2cc(S(=O)(=O)Nc4ccc(C(=O)O)cc4)ccc2-3)cc1`, the “growth rescue (activation)” value was inactive: -1.63%.

On to `CCC1Oc2ccc(C)cc2N(CC(=O)N2CCOCC2)C1=O` (centres undefined), for which the “growth rescue (activation)” value was inactive: 18.1%. Still for that read-out and setting: the same measure for `Cc1ccc(NC(=O)c2ccc([N+](=O)[O-])o2)cc1S(=O)(=O)N1CCOCC1`: inactive: 17.5%; for `CN(Cc1ccon1)C(=O)C1CCN(C2CCN(CCCc3ccccc3)CC2)CC1`: inactive: 13.7%; for `CCOc1ccc(NC(=S)N2CCC(NC(=O)c3ccccc3)CC2)cc1`: inactive: 0.955%.

As for `CCOC(=O)c1c(-c2ccccc2)oc2ccc(OCC)cc12`, the “growth rescue (activation)” value is inactive: 25.3%.

Consider `Cc1ccc(NC(=O)CCNS(=O)(=O)c2cccc3nsnc23)cc1F`, for which the “growth rescue (activation)” value was inactive: 7.3%.

In the case of `CN1CCC/C1=C1/C(=O)N(c2ccccc2)N=C1NC(=O)Nc1cccc(Cl)c1`, the “growth rescue (activation)” value is inactive: 6.48%. The same measure, in the same setting: the same measure for `COc1ccc(NC2=C(C(C)=O)C(c3ccccc3)C(C(C)=O)C(C)(O)C2)cc1` (centres undefined): inactive: 10.8%. Still for that read-out and setting: with `Cc1cccc(C)c1NC(=O)Nc1ccccc1-n1ccnc1` the figure was inactive: 9.31%; with `O=C(c1cnn(C(=O)c2ccccc2)c1)c1ccccc1O`, inactive: 28.9%. The same measure, in the same setting: with `Cc1c(CN2CCC(CO)(CC3CCCCO3)CC2)cnn1C` (centres undefined) the figure was inactive: 2.28%.

As to `COc1ccc(C(=O)Nc2nc3c(s2)Cc2cc(OC)ccc2-3)cc1`, the Potency entry was “inactive”. With `COc1c(Cl)ccc(Cl)c1C(=O)NC(=S)N1CCOCC1`, the “growth rescue (activation)” value was inactive: 11.5%. Consider `COc1ccc(CNC(=O)CN(Cc2ccc(OC)cc2)C(=O)CCC(=O)Nc2nccs2)cc1`, for which the “growth rescue (activation)” value is inactive: 0.639%. `CN1COc2ccc3ccccc3c2C1`: the “growth rescue (activation)” value was inactive: 5.38%. On to `O=C(Nc1ccc(N2CCOCC2)cc1)c1cccc2c(-c3ccc(F)c(F)c3)coc12`, for which the “growth rescue (activation)” value is inactive: -2.56%.

In the case of `O=C(COc1ccccc1Cl)Nc1ccc2c(c1)OCO2`, the “growth rescue (activation)” value is inactive: 13%. The same measure, in the same setting: with `Cc1ccc(NC(=O)c2c(Cl)nc3ccccn23)cc1` the figure was inactive: 24.1%. Still for that read-out and setting: the same measure for `CCNC(=O)C1(C)CCCN(CC(=O)c2ccccc2OC)C1` (centres undefined): inactive: -18.5%; for `CC(C)N(Cc1ccccc1)C(=O)COC(=O)c1c(F)cccc1F`: inactive: 9.75%. On the same count and under the same terms, the same measure for `CN(C)S(=O)(=O)c1ccc(C(=O)NCc2ccccn2)cc1`: inactive: 13.5%; for `CCOc1cc(S(=O)(=O)NCc2ccncc2)c(C)cc1C`: inactive: -8.7%; for `COc1ccccc1CNC(=O)CN1C(=O)NC(Cc2ccccc2)(c2ccccc2)C1=O` (centres undefined): inactive: -9.37%. In the case of `CC(CCc1ccccc1)N1CCN(Cc2ccccc2)CC1` (centres undefined), the “growth rescue (activation)” value is inactive: 7.37%.

`Cc1ccc(S(=O)(=O)Nc2ccc(N3CCCCC3)cc2)cc1`: the “growth rescue (activation)” value was inactive: -1.27%. With `COc1ccc(CCN(/C=C2\Sc3ccccc3C2=O)C(C)=O)cc1OC`, the “growth rescue (activation)” value was inactive: 18.4%. In the case of `O=C(COC(=O)c1ccc(S(=O)(=O)N2CCCC2)cc1)Nc1ccc(F)cc1F`, the “growth rescue (activation)” value is inactive: -4.82%. As to `Nc1cc(Cl)ccc1C(=O)OCC(=O)N1CCCC1`, the “growth rescue (activation)” value was inactive: 9.41%.

Regarding `Cc1sc2nc(SCC(=O)NCc3ccco3)n(C)c(=O)c2c1C`, the “growth rescue (activation)” value was inactive: 23.1%.

As to `O=C(COc1ccc(F)cc1)Nc1ccc(Cl)c(-c2nc3ccccc3[nH]2)c1`, the “growth rescue (activation)” value was inactive: -7.33%.

`CCCCc1ccc(NC(=S)NCCc2ccc(S(N)(=O)=O)cc2)cc1`: the “growth rescue (activation)” value is inactive: 13.7%.

As for `O=C(N/N=C/c1cn(-c2ccccc2)nc1-c1cc2ccccc2o1)c1c[nH]c2ccccc12`, the “growth rescue (activation)” value is inactive: 3.1%. For `Cc1ccc(-c2cc(C(F)F)nc(N3CCOCC3)n2)cc1`, the “growth rescue (activation)” value was inactive: 1.51%. The same measure, in the same setting: the same measure for `CCOC(=O)NC(=O)/C(C#N)=N\Nc1cccc(Cl)c1`: inactive: 20.5%; for `O=C(NCc1n[nH]c(=S)n1-c1ccc(F)cc1)c1ccc(S(=O)(=O)N2CCCCC2)cc1`: inactive: 7.99%; for `O=C(CSc1nnc(C2CC2)n1-c1ccccc1)N1CCCC1`: inactive: -2.32%.

`Cc1cccc(NC(=O)CCNC(=O)c2ccc(Br)cc2)c1C`: the “growth rescue (activation)” value is inactive: -2.26%. As for `O=C(Cc1ccc(Cl)cc1)Nc1ccc(CN2CCCCC2)cc1`, the “growth rescue (activation)” value is inactive: 14.9%.

Turning to `COc1cccc(NC(=O)N2CCCC2C(=O)NC2CCCC2)c1` (centres undefined), the “growth rescue (activation)” value was inactive: -17.7%. Take `COc1cccc(C2=NOC(C(=O)NCc3cccnc3)C2)c1` (centres undefined): the “growth rescue (activation)” value is inactive: 10.4%. On the same count and under the same terms, the same measure for `CCc1cccc(NC(=O)C2CCCN2C(=O)Nc2ccc(C)cc2)c1` (centres undefined): inactive: 24.5%; for `CC(=O)c1ccc(NC(=O)C(C)OC(=O)c2ccc(NS(=O)(=O)c3ccc4[nH]c(=O)[nH]c4c3)cc2)cc1` (centres undefined): inactive: 0.869%. As for `CC(=O)Oc1ccc(CC(C(=O)O)N2C(=O)c3ccccc3C2=O)cc1` (centres undefined), the “growth rescue (activation)” value was inactive: 1.69%. Same read-out and setting: with `O=C(COC(=O)c1ccc(F)cc1)Nc1ccc(Cl)cn1` the figure was inactive: 1.45%; with `CCc1ccc(C(C(=O)NC2CCCC2)N(CCOC)C(=O)CCC(=O)Nc2cc(C)on2)cc1` (centres undefined), inactive: -19.6%; with `CCOC(=O)CSc1nc2c(sc(=S)n2-c2ccc(CC)cc2)c(=O)[nH]1`, inactive: -3.53%. On the same count and under the same terms, with `COc1cc(OC)cc(Oc2ccc(S(=O)(=O)N3CCCCC3)cc2[N+](=O)[O-])c1` the figure was inactive: 8.35%. On the same count and under the same terms, with `O=C(CN1c2cccc3cccc(c23)S1(=O)=O)Nc1c(F)c(F)c(F)c(F)c1F` the figure was inactive: -16.9%. Regarding `CC(=O)Nc1ccc(C(=O)OCC(=O)NCc2ccc3c(c2)OCO3)cc1`, the “growth rescue (activation)” value was inactive: 17.8%. With `CCc1cc(OCCCCNCc2ccccc2)ccc1Cl`, the “growth rescue (activation)” value is inactive: -12.9%.
